Experimental data: PubChem BioAssay AID1745853 (National Center for Advancing Translational Sciences (NCATS), 2022)
Where “and” joins values, the source holds several entries; their conditions need not be identical. Equal values may be shown once. This is one part of the list. Shown are side measurements of this screen, not its main read-out; they come without a call.

Tests used:
Test in all cases: Primary Screen for Target Class Profiling of Small Molecule Inhibitors of Methyltransferases
[1] = molecular target: Glycine N-methyltransferase (Homo sapiens) (UniProt Q14749); details: purified enzyme, MTase-Glo SAH luminescence; measured here: GNMT inhibition; at 40 µM; stronger effect = lower value
Outline: (§1)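 Each enzyme was assayed with SAM and its substrate. SAH formation detected by MTase-Glo luminescence; single-point 40 uM screen[…].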

[2] = molecular target: Guanidinoacetate N-methyltransferase (Homo sapiens) (UniProt Q14353); details: purified enzyme, MTase-Glo SAH luminescence; measured here: GAMT inhibition; at 40 µM; stronger effect = lower value
Outline: as §1

[3] = molecular target: Histamine N-methyltransferase (Homo sapiens) (UniProt P50135); details: purified enzyme, MTase-Glo SAH luminescence; measured here: HNMT inhibition; at 40 µM; stronger effect = lower value
Outline: as §1

[4] = molecular target: Nicotinamide N-methyltransferase (Homo sapiens) (UniProt P40261); details: purified enzyme, MTase-Glo SAH luminescence; measured here: NNMT inhibition; at 40 µM; stronger effect = lower value
Outline: as §1

[5] = molecular target: Phenylethanolamine N-methyltransferase (Homo sapiens) (UniProt P11086); details: purified enzyme, MTase-Glo SAH luminescence; measured here: PNMT inhibition; at 40 µM; stronger effect = lower value
Outline: as §1
% is scaled to controls: 0 for no effect and ±100 for the full control effect.

`O=C(Cn1c(=O)oc2cc(S(=O)(=O)N3CCCC3)ccc21)Nc1cccc(Cl)c1` showed an activity change, negative = inhibition [1] of -0.864%, an activity change, negative = inhibition [2] of 3.36% and an activity change, negative = inhibition [3] of 4.34%. The activity change, negative = inhibition [4] was -0.902% and the activity change, negative = inhibition [5] was -41.6%.
`O=C(CN1CCOCC1)N1CCC(c2cc(N3CCCC3)ncn2)CC1` gave an activity change, negative = inhibition [1] of -5.16%, an activity change, negative = inhibition [2] of -2.92% and an activity change, negative = inhibition [3] of -2.1%. The activity change, negative = inhibition [4] was -4.53% and the activity change, negative = inhibition [5] was -4.79%.
`COc1cc(/C=C/CO[C@@H]2O[C@H](CO)[C@@H](O)[C@H](O)[C@H]2O)cc(OC)c1O[C@@H]1O[C@H](CO)[C@@H](O)[C@H](O)[C@H]1O` gave an activity change, negative = inhibition [1] of -2.04%, an activity change, negative = inhibition [2] of -1.72% and an activity change, negative = inhibition [3] of 2.09%. For the same compound, the activity change, negative = inhibition [4] was -11.8% and the activity change, negative = inhibition [5] was -10.7%.
Compound `CCCN1C(=O)c2ccc(-c3ccco3)n2CC1(C)C(=O)NCc1ccc(Cl)cc1` (stereo not given) has an activity change, negative = inhibition [1] of -6.15%, an activity change, negative = inhibition [2] of 0.289% and an activity change, negative = inhibition [3] of -0.72%. The activity change, negative = inhibition [4] was -3.32% and the activity change, negative = inhibition [5] was -4.55%.
For `Cc1nn(-c2ccccc2)c2c1C(C1CC1)N(C1CN(C(=O)Nc3ccccc3)C1)C2=O` (stereo not given), the activity change, negative = inhibition [1] was -5.02%, the activity change, negative = inhibition [2] was -6.91% and the activity change, negative = inhibition [3] was -3.53%. For the same compound, the activity change, negative = inhibition [4] was -4.04% and the activity change, negative = inhibition [5] was -6.7%.
For `Cc1ncccc1C(=O)N1CCCN(C(=O)C2CC2)C(c2ccccc2)CC(=O)NCC1` (stereo not given), the activity change, negative = inhibition [1] was -3.59%, the activity change, negative = inhibition [2] was -7.04% and the activity change, negative = inhibition [3] was -2.91%. For the same compound, the activity change, negative = inhibition [4] was -4.34% and the activity change, negative = inhibition [5] was -10.1%.
With `CCOc1ccccc1CN1C(=O)c2nc3ccccc3n2CC1(C)C(=O)NC1CCCCCC1` (stereo not given) the activity change, negative = inhibition [1] was -0.983%, the activity change, negative = inhibition [2] was 4.38% and the activity change, negative = inhibition [3] was 2.68%. It also gave an activity change, negative = inhibition [4] of -5.92% and an activity change, negative = inhibition [5] of -3.36%.
`CCc1ccc(N2C(=O)c3cc4sccc4n3CC2(C)C(=O)NC2CCCCC2)cc1` (stereo not given) was tested, and the activity change, negative = inhibition [1] was -6.61%, the activity change, negative = inhibition [2] was -0.331% and the activity change, negative = inhibition [3] was -1.67%. The activity change, negative = inhibition [4] was 3.97% and the activity change, negative = inhibition [5] was -4.5%.
In the case of `CN(C)c1ccc(CN2C(=O)c3cc4ccccc4n3CC2(C)C(=O)NCc2ccccc2)cc1` (stereo not given), the activity change, negative = inhibition [1] is reported as 1.49%, the activity change, negative = inhibition [2] is reported as 7.46% and the activity change, negative = inhibition [3] is reported as 3.62%. It also gave an activity change, negative = inhibition [4] of -3.06% and an activity change, negative = inhibition [5] of -0.866%.
`O=C(C1CC1)N1C[C@@H]2OCC(=O)N(CC3CC3)[C@@H]2C1` gave an activity change, negative = inhibition [1] of -1.64%, an activity change, negative = inhibition [2] of -0.971% and an activity change, negative = inhibition [3] of 1.89%. For the same compound, the activity change, negative = inhibition [4] was -2.34% and the activity change, negative = inhibition [5] was 1.56%.
`CCN(CC)Cc1ccc2cc(COC(=O)Nc3ccc(C(=O)NO)cc3)ccc2c1` was tested, and the activity change, negative = inhibition [1] was -6.19% and -12.4%, the activity change, negative = inhibition [2] was -5.54% and the activity change, negative = inhibition [3] was -64.5% and -20.1%. The activity change, negative = inhibition [4] was -18.9% and -20.4% and the activity change, negative = inhibition [5] was -7.36% and 10.2%.
`O=C(CC1CCOCC1)N1CCN(c2ncccn2)CC1` showed an activity change, negative = inhibition [1] of -1.91%, an activity change, negative = inhibition [2] of -3.24% and an activity change, negative = inhibition [3] of -0.128%. It also gave an activity change, negative = inhibition [4] of -2.75% and an activity change, negative = inhibition [5] of -1.21%.
Work on `O=S(=O)(c1ccc(Cl)c(-c2nnc(-c3ccccc3)o2)c1)N1CCN(c2ccccc2)CC1` yielded an activity change, negative = inhibition [1] of 15.1%, an activity change, negative = inhibition [2] of 2.21% and an activity change, negative = inhibition [3] of 12.3%. The activity change, negative = inhibition [4] was -0.396% and the activity change, negative = inhibition [5] was 9.27%.
Compound `COc1cccc(C(=O)COc2cc(O)c3c(=O)cc(-c4ccccc4)oc3c2)c1` has an activity change, negative = inhibition [1] of -5.88%, an activity change, negative = inhibition [2] of 3.74% and an activity change, negative = inhibition [3] of -2.88%. The activity change, negative = inhibition [4] was -2.38% and the activity change, negative = inhibition [5] was -6.16%.
Work on `CC(C)c1cc2n(n1)CC(C)(C(=O)NC1CCCCCC1)N(Cc1cccc(F)c1)C2=O` (stereo not given) yielded an activity change, negative = inhibition [1] of 4.32%, an activity change, negative = inhibition [2] of 6.49% and an activity change, negative = inhibition [3] of 8.63%. It also gave an activity change, negative = inhibition [4] of -8.29% and an activity change, negative = inhibition [5] of 1.9%.
Work on `O=C(CC[C@@H]1CNC(=O)[C@@H]2C[C@H](NC(=O)C3CC3)CN12)NCc1cccs1` yielded an activity change, negative = inhibition [1] of -0.353%, an activity change, negative = inhibition [2] of -6.62% and an activity change, negative = inhibition [3] of -0.544%. It also gave an activity change, negative = inhibition [4] of -8.47% and an activity change, negative = inhibition [5] of 0.376%.
`Nc1nc(Cl)nc2c1ncn2[C@@H]1O[C@H](COP(=O)(O)OP(=O)(O)OP(=O)(O)O)[C@@H](O)[C@H]1O` gave an activity change, negative = inhibition [1] of 64.2%, an activity change, negative = inhibition [2] of 168% and an activity change, negative = inhibition [3] of 36%. The activity change, negative = inhibition [4] was 85.7% and the activity change, negative = inhibition [5] was 31.2%.
Work on `O=C(O)[C@H](Cc1ccc(Nc2nccc3ccncc23)cc1)NC1=C(Br)C(=O)C12CCCCC2` yielded an activity change, negative = inhibition [1] of -28.9%, an activity change, negative = inhibition [2] of -16.1% and an activity change, negative = inhibition [3] of -7.08%. It also gave an activity change, negative = inhibition [4] of -29.8% and an activity change, negative = inhibition [5] of -14.2%.
`CC1CCC(NC(=O)C2(C)Cn3c(cc4occc43)C(=O)N2CCCN2CCCCC2C)CC1` (stereo not given) showed an activity change, negative = inhibition [1] of 2.88%, an activity change, negative = inhibition [2] of 4.61% and an activity change, negative = inhibition [3] of -5.38%. For the same compound, the activity change, negative = inhibition [4] was 6.11% and the activity change, negative = inhibition [5] was 1.33%.
`CC(C)(C#N)c1ccc(N2C(=O)OCc3cnc4ccc(-c5cnc6ccccc6c5)cc4c32)cc1` was tested, and the activity change, negative = inhibition [1] was -2.43%, the activity change, negative = inhibition [2] was 8.26% and the activity change, negative = inhibition [3] was 7.81%. The activity change, negative = inhibition [4] was -15.2% and the activity change, negative = inhibition [5] was 2.22%.
`COc1ccc(CC(=O)NCc2ccccc2-c2ccccc2C(=O)NCCc2cccnc2)cc1` gave an activity change, negative = inhibition [1] of 4.4%, an activity change, negative = inhibition [2] of 6.21% and an activity change, negative = inhibition [3] of 12.1%. It also gave an activity change, negative = inhibition [4] of -14.3% and an activity change, negative = inhibition [5] of -3.31%.
For `CC(=O)NC1CCN(Cc2cn(-c3ccccc3F)nc2-c2cc(C)sc2C)C1` (stereo not given), the activity change, negative = inhibition [1] was -1.04%, the activity change, negative = inhibition [2] was -0.104% and the activity change, negative = inhibition [3] was 1.58%. For the same compound, the activity change, negative = inhibition [4] was -7.01% and the activity change, negative = inhibition [5] was 2.64%.
`O=C(Nc1ccc2c(N3CCCCC3)ncnc2c1)c1ccccc1C(F)(F)F` gave an activity change, negative = inhibition [1] of -36.3%, an activity change, negative = inhibition [2] of -29.8% and an activity change, negative = inhibition [3] of -68.3%. It also gave an activity change, negative = inhibition [4] of -30.6% and an activity change, negative = inhibition [5] of -17.4%.
Work on `CCS(=O)(=O)N1CCC2(CC1)CC(N1CCN(C(C)C)CC1)CCO2` (stereo not given) yielded an activity change, negative = inhibition [1] of -3.52%, an activity change, negative = inhibition [2] of 0.125% and an activity change, negative = inhibition [3] of -4.05%. It also gave an activity change, negative = inhibition [4] of 1.65% and an activity change, negative = inhibition [5] of 3.08%.
For `COc1ccc(-c2cc3n(n2)CC(C)(C(=O)NCc2ccccc2)N(c2cc(C)ccc2C)C3=O)cc1` (stereo not given), the activity change, negative = inhibition [1] was 6.85%, the activity change, negative = inhibition [2] was 0% and the activity change, negative = inhibition [3] was 10.2%. For the same compound, the activity change, negative = inhibition [4] was 7.26% and the activity change, negative = inhibition [5] was 3.69%.
`O=C1CCCCC(C(=O)NCCc2ccncc2)N1` (stereo not given) gave an activity change, negative = inhibition [1] of -1.15%, an activity change, negative = inhibition [2] of -0.018% and an activity change, negative = inhibition [3] of -1.68%. The activity change, negative = inhibition [4] was -3.07% and the activity change, negative = inhibition [5] was -1.56%.
Compound `CCc1ccc(CNC(=O)CCn2ccc3cc(S(=O)(=O)N4CCCC4)ccc32)cc1` has an activity change, negative = inhibition [1] of -5.73%, an activity change, negative = inhibition [2] of 0% and an activity change, negative = inhibition [3] of 1.39%. It also gave an activity change, negative = inhibition [4] of -3.48% and an activity change, negative = inhibition [5] of 1.19%.
In the case of `COC(=O)N1CCCN(c2nccc(Nc3ccc(C)cc3)n2)C1`, the activity change, negative = inhibition [1] is reported as -20.9%, the activity change, negative = inhibition [2] is reported as -6.25% and the activity change, negative = inhibition [3] is reported as -8.21%. The activity change, negative = inhibition [4] was -21.8% and the activity change, negative = inhibition [5] was -24.4%.
With `CC(C)=CCC[C@](C)(O)[C@H]1CC[C@]2(C)[C@@H]1[C@H](O)CC1[C@@]3(C)CC[C@H](O)C(C)(C)[C@@H]3[C@@H](O[C@@H]3O[C@H](CO)[C@@H](O)[C@H](O)[C@H]3O[C@@H]3O[C@H](CO)[C@@H](O)[C@H](O)[C@H]3O)C[C@]12C` (stereo not given in full) the activity change, negative = inhibition [1] was 2.09%, the activity change, negative = inhibition [2] was -2.87% and the activity change, negative = inhibition [3] was 9.96%. It also gave an activity change, negative = inhibition [4] of -14.8% and an activity change, negative = inhibition [5] of 7.95%.
